# Source: PMC4336329 (PLoS ONE, 2015)
# The whole screen tested about 310,000 compounds, of which about 14,000 (4.5%) showed an effect of 50% or more. Effects have a minus sign here. Some of the results follow.
# Target: human ether-à-go-go-related gene (hERG) potassium channel (human, UniProt Q12809)
# Assay: primary screen, population patch clamp on CHO cells stably expressing hERG
# 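Also: peak tail current of the secondary pulse compared with the same well before compound.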
# Sequence of human ether-à-go-go-related gene (hERG) potassium channel (Q12809 whole entry, looked up): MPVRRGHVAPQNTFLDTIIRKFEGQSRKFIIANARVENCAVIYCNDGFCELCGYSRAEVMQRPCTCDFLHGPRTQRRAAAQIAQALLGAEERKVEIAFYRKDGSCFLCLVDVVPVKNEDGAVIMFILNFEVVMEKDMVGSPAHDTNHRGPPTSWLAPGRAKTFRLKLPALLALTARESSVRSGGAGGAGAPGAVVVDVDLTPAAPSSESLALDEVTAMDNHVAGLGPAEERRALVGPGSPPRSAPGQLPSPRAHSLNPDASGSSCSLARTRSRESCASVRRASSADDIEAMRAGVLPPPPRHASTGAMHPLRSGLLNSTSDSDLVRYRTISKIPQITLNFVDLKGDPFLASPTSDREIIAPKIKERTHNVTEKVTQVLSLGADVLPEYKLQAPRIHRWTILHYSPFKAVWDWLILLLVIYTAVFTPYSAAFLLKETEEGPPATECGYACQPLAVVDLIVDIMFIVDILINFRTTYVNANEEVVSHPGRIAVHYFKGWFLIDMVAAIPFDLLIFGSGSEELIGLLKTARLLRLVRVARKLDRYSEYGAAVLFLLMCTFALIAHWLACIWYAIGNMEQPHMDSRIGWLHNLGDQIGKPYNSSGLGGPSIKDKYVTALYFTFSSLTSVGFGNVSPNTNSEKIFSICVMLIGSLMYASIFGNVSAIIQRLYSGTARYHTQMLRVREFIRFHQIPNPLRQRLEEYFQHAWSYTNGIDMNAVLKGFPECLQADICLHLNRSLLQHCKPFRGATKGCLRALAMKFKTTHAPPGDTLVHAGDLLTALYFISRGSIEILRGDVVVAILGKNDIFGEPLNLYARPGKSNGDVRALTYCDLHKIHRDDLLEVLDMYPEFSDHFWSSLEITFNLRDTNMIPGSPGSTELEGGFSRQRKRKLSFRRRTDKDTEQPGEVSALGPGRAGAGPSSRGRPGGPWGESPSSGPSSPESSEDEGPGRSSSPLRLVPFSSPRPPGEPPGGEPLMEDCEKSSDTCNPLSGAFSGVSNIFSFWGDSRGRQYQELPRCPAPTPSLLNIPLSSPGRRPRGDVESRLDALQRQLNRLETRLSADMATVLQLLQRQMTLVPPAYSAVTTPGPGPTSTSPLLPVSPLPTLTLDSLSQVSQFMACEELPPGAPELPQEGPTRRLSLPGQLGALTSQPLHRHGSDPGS
row,SMILES,"hERG current change (%, negative = inhibition) at 10uM [%]"
1,C=C1C2(C(=O)NCc3ccco3)CCC(C2)C1(C)C (centres unmarked),2.47
2,CCOC(=O)C1CCN(C(c2ccccn2)c2c(C)[nH]c3ccccc23)CC1 (centres unmarked),-19.8
3,CSc1cccc(NC(=O)C2CC(=O)N(Cc3ccccc3)C2)c1 (centres unmarked),-5.34
4,O=C(CCn1c(=O)oc2ccccc21)N1CCN(c2ccccc2Cl)CC1,-34.7
5,Cc1ccc(N2C(=O)N(CC(=O)Nc3ccc(C)c(C)c3)C(=O)C2C)cc1 (centres unmarked),8
6,O=C(COC(=O)c1c[nH]c2ccccc12)Nc1ccc([N+](=O)[O-])cc1,-0.338
7,O=C(Cc1ccccc1)NCc1ccc(-n2cccc2)cc1,29.3
8,Cc1cc(C)c2nc(NC(=O)CN3C(=O)NC4(CCCC4)C3=O)sc2c1,17.1
9,Br.Cc1ccc(C(=O)C(c2ccccc2)N2Cc3ccccc3C2=N)cc1 (centres unmarked),-60.3
10,NC(=O)CSc1nnc(Cn2cnc3ccccc32)o1,6.95
11,CSCC(=O)N1CCC(n2nccc2NC(=O)CCc2ccccc2)CC1,12.1
12,COc1ccccc1/C=N/NC(=O)CNC(=O)c1ccccc1,-13.9
13,CN1CCN(C(=S)c2ccc(-c3cccc([N+](=O)[O-])c3)o2)CC1,-35.1
14,Cc1ccc(CN2CCN(Cc3c(C)nn(C(C)C)c3C)CC2CCO)o1 (centres unmarked),-7.24
15,CCOC(=O)c1[nH]cnc1C(=O)Nc1cccc(N)n1,5.62
16,C#CCNC(=O)C1=C[C@H](c2ccc(Br)cc2)C[C@H](OCCCCO)O1,-13.7
17,COc1ccc(NC(=O)CCc2c(C)nc3nc(C)nn3c2C)cc1,12.7
18,OCOCCCn1c(C2CCCN2c2nc(-c3ccc(F)cc3)cs2)nc2cc(Cl)c(N3CCCCC3)cc21 (centres unmarked),-5.47
19,CCc1ccc(S(=O)(=O)NCCOc2cccc3cccnc23)cc1,-36
20,CN(C)N=Nc1nc2c(c(=O)n(C)c(=O)n2C)n1CC1CO1 (centres unmarked),-18.7
21,Cc1cnc(NC(=O)c2cncc(Br)c2)s1,17.1
22,O=C(NNC(=O)c1ccccc1O)c1ccco1,18.6

row,SMILES,"hERG current change (%, negative = inhibition) at 10uM [%]"
1,Cc1cccc(NC(=O)CNC(=O)c2cn(Cc3ccccc3)nc2-c2cccnc2)c1C,-17.4
2,C#CCOCCOCCOCCNc1nc(N2CCN(C(=O)[C@H](Cc3ccc(O)cc3)n3cc([C@@H](N)C(C)CC)nn3)CC2)nc(N2CCN(C(=O)[C@H](Cc3cc4ccccc4[nH]3)n3cc([C@@H](N)Cc4ccc(O)cc4)nn3)CC2)n1.Cl (some centres unmarked),7
3,Cc1cc(C)c(-n2c(O)c(/C=N/NC(=O)c3ccncc3)c(=O)[nH]c2=O)c(C)c1,6.13
4,COc1ccc(CCNC(=O)c2cccc(NS(=O)(=O)c3ccccc3F)c2)cc1OC,2.36
5,O=C(NN=C1CCCC1)c1cccs1,-2.76
6,Cn1c(N)c(C(C[N+](=O)[O-])c2ccccc2Cl)c(=O)n(C)c1=O (centres unmarked),14
7,COC(=O)c1ccc(Cn2nc(-c3ccc(C)c(C)c3)ccc2=O)cc1,16.7
8,Nc1nc(N)c2c(ccc3nccc32)[nH]1,11.6
9,CN(C)C(CNC(=O)c1ccc2ccccc2c1)c1ccco1 (centres unmarked),-6.58
10,CCOc1ccc(CCNC(=O)c2c(C)nn(-c3ccccc3)c2Cl)cc1OCC,-25.3
11,c1csc(CNc2ncnc3ccc(-c4ccoc4)cc23)c1,-13.4
12,COc1ccc(/C=C/C(=O)OCC(=O)NCc2ccccc2)cc1OC,-0.695
13,N/C(Cc1nc2ccccc2s1)=N\O,7.15
14,CCOC(=O)C1=C(N)Oc2cc(O)ccc2C1c1ccc(C)cc1 (centres unmarked),-14.6
15,CCCN(CCC)c1nc(NC2CCN(C(=O)OCC)CC2)nc(OC)n1,-25.4
16,Cc1sc2nc(C3CC3)nc(SCC(=O)N3CCCc4ccccc43)c2c1C,22.7
17,Cc1ccc(NS(=O)(=O)c2ccc(OCC(=O)NCc3ccccn3)cc2)cc1,4.79
18,Cc1nnc(NC(=O)C(C)Sc2nnc(CCNC(=O)c3ccccc3F)n2C)s1 (centres unmarked),21.1
19,CCc1ccc2[nH]c(=O)c(CN(CCN(C)C)C(=S)NCc3ccco3)cc2c1,-52
20,Cc1ccc2nc(NC(=O)CCNS(=O)(=O)c3cccs3)sc2c1,-0.362
21,CCOC(=O)c1c(CN2CCOCC2)n(-c2ccccc2)c2cc(Br)c(O)c(CN(C)C)c12,-42.3
22,CCCC(C)NC(=O)c1ccc(C2SCC(=O)N2Cc2ccco2)cc1 (centres unmarked),-11.1

row,SMILES,"hERG current change (%, negative = inhibition) at 10uM [%]"
1,O=C(CCc1nnc(-c2ccsc2)o1)N1CCc2c(Cl)cccc2C1,-34.7
2,O=C(CSc1ncnc2c1oc1ccccc12)NC1CCCC1,-7.51
3,COc1ccc(C(=O)Nc2ccc(O)c3ccccc23)cc1OC,14.1
4,N#CCCCC#Cc1ccc2c(c1)COc1c3ccccc3nn1-2,6.95
5,Cc1ccc(C(=O)c2ccccc2C(=O)O)s1,-1.28
6,CC(C)=CC(=O)Nc1ccc2c(c1)OCO2,10.2
7,CSc1cccc(NC(=O)Nc2nc3c(C)cccc3s2)c1,26.4
8,Cc1ccc2nc(N3CCN(c4ccccc4)CC3)c(C=O)c(=O)n2c1,11.5
9,COc1ccc(-c2oc(=O)c3cc(OC)c(OC)cc3c2/C=C/c2ccc(F)cc2)cc1,9.18
10,Cn1c(CCN2CCN(c3ccccn3)CC2)nc2cc(NC(=O)COc3ccc([N+](=O)[O-])cc3)ccc21,-5.69
11,COc1ccc(C(C)=O)c(Oc2nc(CN3CCOCC3)nc3scc(-c4cccs4)c23)c1,-43
12,COc1ccc(OCC(=O)OC(C)CN2CCOCC2)cc1 (centres unmarked),14.2
13,CC(C)C(=O)Nc1ccc(S(=O)(=O)Nc2nccc(/C=C/c3ccccc3)n2)cc1,3.27
14,COc1cccc(CN(C)C(=S)Nc2cccc(C)c2)c1,2.64
15,CC1CCN(S(=O)(=O)c2ccc3c(c2)c(=O)c(C(=O)NC2CCCC2)cn3C)CC1,-16.9
16,O=C(CN1C(=O)CCC1=O)Nc1nc(-c2ccc3ccccc3c2)cs1,-1.28
17,CCOc1ccc(NC(=O)C/C(C)=N/NC(=O)Cc2cccs2)cc1,9.73
18,COCCNC(=O)C(=O)NCC1OCCN1C(=O)c1ccc(Cl)cc1 (centres unmarked),-8.52
19,Cc1cc(/C=N/NC(N)=O)c(C)n1C1CCCCC1,1.46
20,O=C(CN1CCCC1)Nc1c2c(nc3ccccc13)N(Cc1ccccc1)CC2.O=C(O)C(=O)O,6.05
21,C=CCc1cccc2cc(C(=O)N3CCN(C(=O)c4ccccc4)CC3)c(=O)oc12,-12.9
22,Cc1cccnc1NC(=O)C1CCN(S(=O)(=O)c2ccc3c(c2)CCC(=O)N3)CC1,16.1

row,SMILES,"hERG current change (%, negative = inhibition) at 10uM [%]"
1,COc1ccc2nc(SCC(=O)Nc3ccc4c(c3)CCC4)[nH]c2c1,8.79
2,COC(=O)C(C)Sc1ccc2nnc(-c3ccccc3)n2n1 (centres unmarked),-30.8
3,Cc1ccc(C(=O)NN2CCOCC2)cc1[N+](=O)[O-],13.5
4,N#CCSc1nc2ccccc2o1,4.88
5,COc1cc(OC)cc(C(=O)NNS(=O)(=O)c2ccc(F)cc2)c1,9.4
6,Brc1ccc(/C=N/n2cnnc2)s1,11.2
7,Cc1ccc(/C(N)=N/OC(=O)CCCc2ccccc2)cc1,4.79
8,O=C(Nc1ccc(Br)cc1)N1CCCCCCC1,-3.66
9,CC(Oc1ccc2c3c(c(=O)oc2c1)CCC3)C(=O)NC1CCN(Cc2ccccc2)CC1 (centres unmarked),-47.9
10,Cn1c(NC(=O)c2ccc(Cl)s2)cc(=O)n(C)c1=O,2.36
11,COc1ccc(CC(=O)Nc2cc(NC(=O)Cc3ccc(OC)c(OC)c3)cc(C(=O)O)c2)cc1OC,14.3
12,NNc1nc(-c2ccccc2Cl)c2cc(Br)ccc2n1,-7.15
13,CCC(Sc1nc2ccccc2c2nc3ccccc3n12)C(=O)NCc1ccco1 (centres unmarked),-4.79
14,CCN(CC)c1ccc(NC(=O)COc2ccccc2C)cc1S(=O)(=O)Nc1ccccc1OC,25.2
15,Cc1c(C(c2ccc([N+](=O)[O-])cc2)c2c(C)n(C)n(-c3ccccc3)c2=O)c(=O)n(-c2ccccc2)n1C,-19.7
16,O=C(CCC(=O)N1CCOc2ccc(Cl)cc21)N1CCN(c2ccccn2)CC1,-57.5
17,C/C(=N\NC(=O)c1ccco1)c1cc(Cl)sc1Cl,-6.11
18,COC(=O)CC1C(=O)NCCN1C(=O)Nc1ccc(Cl)c(Cl)c1 (centres unmarked),17.3
19,O=C(Cc1c(Sc2ccccc2)c2ccccc2n1Cc1ccccc1)NCCO,10.3
20,COc1ccc(-n2nnc3c(=O)n(CC(=O)N4CCC(C)CC4)cnc32)cc1,-2.4
